A lower IC50 marks a more sensitive line; fits outside the tested doses are given as limits. The AUC spans the tested range (256-fold, ending at the top dose) of the same fit; values near 1 show little effect. Where the top dose is marked as inferred, it was derived from the fitted curves, not read from the paper.
What was measured:
[1] = compound: CCN(CC)CCCCNc1ncc2cc(-c3cc(OC)cc(OC)c3)c(NC(=O)NC(C)(C)C)nc2n1 [PD-173074]; experiment: Viability of human cancer cell lines after 72 h of drug (GDSC screen); settings: top dose 2 µM; top dose inferred
Protocol: (§1)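 Human cancer cell lines in 384-well plates, medium with 10% serum, drug for 72 h over a 256-fold dose range (nine 2-fold or five 4-fold steps up to the top dose). Adherent lines were fixed and stained with the nucleic acid dye Syto60, suspension lines read with resazurin; signal relative to control wells, capped at 0 and 100%. One two-parameter sigmoid per drug and line, fitted in a mixed model over all curves with the slope shared within a line.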

[2] = compound: CN(C)CCOc1ccc(-c2nc(-c3ccncc3)c(-c3ccc4c(c3)CC/C4=N\O)[nH]2)cc1 [SB590885]; experiment: as above; settings: top dose 5 µM; top dose inferred
Protocol: as §1

| Cell Line | AUC [1] | IC50 [1] [nM] | AUC [2] | IC50 [2] [nM] |
| --- | --- | --- | --- | --- |
| NCI-H630 (large intestine, adherent) | 0.985 | > 2000 | 0.988 | > 5000 |
| NCI-H647 (non-small cell lung carcinoma, adherent) | 0.975 | > 2000 | 0.964 | > 5000 |
| NCI-H650 (lung adenocarcinoma, adherent) | 0.986 | > 2000 | 0.964 | > 5000 |
| NCI-H661 (large cell lung carcinoma, adherent) | 0.979 | > 2000 | 0.979 | > 5000 |
| NCI-H727 (lung carcinoid, adherent) | 0.967 | > 2000 | 0.858 | > 5000 |
| NCI-H810 (large cell lung carcinoma, adherent) | 0.988 | > 2000 | 0.988 | > 5000 |
| NCI-H835 (lung carcinoid, suspension) | 0.991 | > 2000 | 0.991 | > 5000 |
| NCI-H838 (lung adenocarcinoma, adherent) | 0.948 | > 2000 | 0.987 | > 5000 |
| NCI-H841 (small cell lung carcinoma, adherent) | 0.988 | > 2000 | 0.988 | > 5000 |
| NCI-H929 (myeloma, suspension) | 0.946 | > 2000 | 0.927 | > 5000 |
| NCI-H1048 (small cell lung carcinoma, adherent) | 0.953 | > 2000 | 0.971 | > 5000 |
| NCI-H1105 (small cell lung carcinoma, suspension) | 0.993 | > 2000 | 0.993 | > 5000 |
| NCI-H1341 (small cell lung carcinoma, suspension) | 0.981 | > 2000 | 0.992 | > 5000 |
| NCI-H1435 (lung adenocarcinoma, semi-adherent) | 0.99 | > 2000 | 0.993 | > 5000 |
| NCI-H1437 (lung adenocarcinoma, adherent) | 0.986 | > 2000 | 0.986 | > 5000 |
| NCI-H1563 (lung adenocarcinoma, adherent) | 0.98 | > 2000 | 0.985 | > 5000 |
| NCI-H1568 (lung adenocarcinoma, adherent) | 0.98 | > 2000 | 0.981 | > 5000 |
| NCI-H1623 (lung adenocarcinoma, adherent) | 0.985 | > 2000 | 0.985 | > 5000 |
| NCI-H1651 (lung adenocarcinoma, adherent) | 0.986 | > 2000 | 0.987 | > 5000 |
| NCI-H1688 (small cell lung carcinoma, adherent) | 0.98 | > 2000 | 0.987 | > 5000 |
| NCI-H1693 (lung adenocarcinoma, adherent) | 0.945 | > 2000 | 0.953 | > 5000 |
| NCI-H1703 (lung adenocarcinoma, adherent) | 0.981 | > 2000 | 0.982 | > 5000 |
| NCI-H1755 (lung adenocarcinoma, adherent) | 0.968 | > 2000 | 0.975 | > 5000 |
| NCI-H1781 (lung adenocarcinoma, adherent) | 0.989 | > 2000 | 0.989 | > 5000 |

| Cell Line | AUC [1] | IC50 [1] [nM] | AUC [2] | IC50 [2] [nM] |
| --- | --- | --- | --- | --- |
| NCI-H1792 (lung adenocarcinoma, adherent) | 0.99 | > 2000 | 0.99 | > 5000 |
| NCI-H1944 (lung adenocarcinoma, adherent) | 0.985 | > 2000 | 0.985 | > 5000 |
| NCI-H1993 (lung adenocarcinoma, adherent) | 0.969 | > 2000 | 0.983 | > 5000 |
| NCI-H2009 (lung adenocarcinoma, adherent) | 0.986 | > 2000 | 0.986 | > 5000 |
| NCI-H2023 (lung adenocarcinoma, adherent) | 0.98 | > 2000 | 0.976 | > 5000 |
| NCI-H2030 (lung adenocarcinoma, adherent) | 0.955 | > 2000 | 0.951 | > 5000 |
| NCI-H2052 (mesothelioma, adherent) | 0.983 | > 2000 | 0.983 | > 5000 |
| NCI-H2066 (small cell lung carcinoma, adherent) | 0.98 | > 2000 | 0.98 | > 5000 |
| NCI-H2085 (lung adenocarcinoma, adherent) | 0.968 | > 2000 | 0.977 | > 5000 |
| NCI-H2087 (lung adenocarcinoma, semi-adherent) | 0.983 | > 2000 | 0.984 | > 5000 |
| NCI-H2172 (non-small cell lung carcinoma, adherent) | 0.979 | > 2000 | 0.983 | > 5000 |
| NCI-H2291 (lung adenocarcinoma, adherent) | 0.923 | > 2000 | 0.952 | > 5000 |
| NCI-H2342 (lung adenocarcinoma, adherent) | 0.986 | > 2000 | 0.986 | > 5000 |
| NCI-H2347 (lung adenocarcinoma, adherent) | 0.983 | > 2000 | 0.973 | > 5000 |
| NCI-H2405 (lung adenocarcinoma, adherent) | 0.985 | > 2000 | 0.979 | > 5000 |
| NCI-H2444 (non-small cell lung carcinoma, adherent) | 0.988 | > 2000 | 0.987 | > 5000 |
| NCI-H2452 (mesothelioma, adherent) | 0.958 | > 2000 | 0.984 | > 5000 |
| NCI-H3122 (lung adenocarcinoma, adherent) | 0.985 | > 2000 | 0.923 | > 5000 |
| NCI-N87 (stomach, adherent) | 0.959 | > 2000 | 0.967 | > 5000 |
| NUGC-3 (stomach, adherent) | 0.975 | > 2000 | 0.964 | > 5000 |
| NUGC-4 (stomach, adherent) | 0.988 | > 2000 | 0.969 | > 5000 |
| NY (osteosarcoma, adherent) | 0.925 | > 2000 | 0.97 | > 5000 |
| OACM5-1 (oesophagus, semi-adherent) | 0.986 | > 2000 | 0.985 | > 5000 |
| OACp4C (oesophagus, adherent) | 0.979 | > 2000 | 0.972 | > 5000 |

| Cell Line | AUC [1] | IC50 [1] [nM] | AUC [2] | IC50 [2] [nM] |
| --- | --- | --- | --- | --- |
| OAW-28 (ovary, adherent) | 0.977 | > 2000 | 0.948 | > 5000 |
| OAW-42 (ovary, adherent) | 0.939 | > 2000 | 0.981 | > 5000 |
| OC-314 (ovary, adherent) | 0.991 | > 2000 | 0.991 | > 5000 |
| OCI-LY7 (B-cell lymphoma, suspension) | 0.969 | > 2000 | 0.994 | > 5000 |
| OCUM-1 (stomach, adherent) | 0.987 | > 2000 | 0.986 | > 5000 |
| OE19 (oesophagus, adherent) | 0.974 | > 2000 | 0.916 | > 5000 |
| OE21 (oesophagus, adherent) | 0.974 | > 2000 | 0.953 | > 5000 |
| OE33 (oesophagus, adherent) | 0.983 | > 2000 | 0.984 | > 5000 |
| OSC-19 (head and neck, adherent) | 0.987 | > 2000 | 0.986 | > 5000 |
| OSC-20 (head and neck, adherent) | 0.976 | > 2000 | 0.982 | > 5000 |
| OV-7 (ovary, adherent) | 0.916 | > 2000 | 0.846 | > 5000 |
| OV-17R (ovary, adherent) | 0.961 | > 2000 | 0.981 | > 5000 |
| OV-56 (ovary, adherent) | 0.976 | > 2000 | 0.986 | > 5000 |
| OV-90 (ovary, adherent) | 0.979 | > 2000 | 0.736 | 1810 |
| OVCA420 (ovary, adherent) | 0.982 | > 2000 | 0.982 | > 5000 |
| OVCA433 (ovary, adherent) | 0.975 | > 2000 | 0.985 | > 5000 |
| OVCAR-3 (ovary, adherent) | 0.955 | > 2000 | 0.966 | > 5000 |
| OVCAR-5 (ovary, adherent) | 0.981 | > 2000 | 0.911 | > 5000 |
| OVCAR-8 (ovary, adherent) | 0.969 | > 2000 | 0.988 | > 5000 |
| OVISE (ovary, adherent) | 0.917 | > 2000 | 0.864 | > 5000 |
| OVK-18 (ovary, adherent) | 0.899 | > 2000 | 0.983 | > 5000 |
| OVKATE (ovary, adherent) | 0.974 | > 2000 | 0.979 | > 5000 |
| OVMIU (ovary, adherent) | 0.962 | > 2000 | 0.944 | > 5000 |
| OVTOKO (ovary, adherent) | 0.914 | > 2000 | 0.93 | > 5000 |

| Cell Line | AUC [1] | IC50 [1] [nM] | AUC [2] | IC50 [2] [nM] |
| --- | --- | --- | --- | --- |
| P12-ICHIKAWA (T-cell lymphoblastic leukaemia, suspension) | 0.992 | > 2000 | 0.976 | > 5000 |
| PA-1 (ovary, adherent) | 0.992 | > 2000 | 0.99 | > 5000 |
| PA-TU-8902 (pancreas, adherent) | 0.98 | > 2000 | 0.983 | > 5000 |
| PANC-02-03 (pancreas, adherent) | 0.962 | > 2000 | 0.976 | > 5000 |
| PANC-03-27 (pancreas, adherent) | 0.989 | > 2000 | 0.988 | > 5000 |
| PANC-04-03 (pancreas, adherent) | 0.963 | > 2000 | 0.952 | > 5000 |
| PANC-10-05 (pancreas, adherent) | 0.972 | > 2000 | 0.982 | > 5000 |
| PC-3 (prostate, adherent) | 0.975 | > 2000 | 0.964 | > 5000 |
| PC-3 [JPC-3] (lung adenocarcinoma, adherent) | 0.981 | > 2000 | 0.981 | > 5000 |
| PC-14 (lung adenocarcinoma, adherent) | 0.99 | > 2000 | 0.981 | > 5000 |
| PCI-4B (head and neck, adherent) | 0.977 | > 2000 | 0.948 | > 5000 |
| PCI-6A (head and neck, adherent) | 0.969 | > 2000 | 0.945 | > 5000 |
| PCI-15A (head and neck, adherent) | 0.781 | 834 | 0.986 | > 5000 |
| PCI-30 (head and neck, adherent) | 0.906 | > 2000 | 0.97 | > 5000 |
| PE/CA-PJ15 (head and neck, adherent) | 0.981 | > 2000 | 0.981 | > 5000 |
| PEO1 (ovary, adherent) | 0.987 | > 2000 | 0.987 | > 5000 |
| PFSK-1 (medulloblastoma, adherent) | 0.98 | > 2000 | 0.982 | > 5000 |
| PL4 (pancreas, adherent) | 0.987 | > 2000 | 0.97 | > 5000 |
| PWR-1E (prostate, adherent) | 0.927 | > 2000 | 0.981 | > 5000 |
| QGP-1 (pancreas, adherent) | 0.965 | > 2000 | 0.928 | > 5000 |
| RCC-AB (kidney, adherent) | 0.975 | > 2000 | 0.981 | > 5000 |
